Experiments:
influenza virus [1] = test: Clinical test (Ph3: adults and adolescents): time to alleviation of influenza symptoms
influenza virus [2] = settings: 20 years old or older and younger than 65 years old
influenza virus [3] = test: Clinical test (Ph3: child): time to alleviation of influenza symptoms; settings: patients 6 months old or older and younger than 12 years old; single oral 5, 10, 20 or 40 mg by body weight; ITTI
[4] = 20 years old or older and younger than 65 years old, Compound II-6 single 40 or 80 mg, Oseltamivir 75 mg twice a day for 5 days

Structure (SMILES)	Time to alleviation of influenza symptoms, difference between groups vs placebo (influenza virus [1]; 12 years old or older and younger than 65 years old)	Time to alleviation of influenza symptoms, median (influenza virus [1]; 12 years old or older and younger than 65 years old, single oral 40 or 80 mg depending on body weight, ITTI)	Time to alleviation of influenza symptoms, difference between groups vs Oseltamivir (influenza virus [1]; 20 years old or older and younger than 65 years old)	Time to alleviation of influenza symptoms, median (influenza virus [1]; [4])	Time (median) to termination of viral shedding based on virus titer (influenza virus [2])	Time (median) to alleviation of influenza symptoms (cough, runny nose/nasal congestion, fever) (influenza virus [3])
COC(=O)OCOc1c2n(ccc1=O)N([C@@H]1c3ccccc3SCc3c1ccc(F)c3F)[C@@H]1COCCN1C2=O [II-6]	-26.5 h	53.7 h	-0.3 h	53.5 h	24.0 h	44.6 h
CCOC(=O)C1=C[C@@H](OC(CC)CC)[C@H](NC(C)=O)[C@@H](N)C1 [Oseltamivir, reference compound]				53.8 h	72.0 h	

Source: patent US10759814B2, “Pharmaceutical compositions containing substituted polycyclic pyridone derivatives and prodrug thereof” (priority 2016, dated 2020)
